According to PubChem BioAssay AID360 (National Center for Advancing Translational Sciences (NCATS), 2006):
Among all 48,000 compounds or so, about 550 (1.1%) were called active. The shares of active, inactive and inconclusive entries below differ from those in the screen. Cut-off read from the data, not from the text of the source: active = potency below about 15 µM; inconclusive = mostly about 16 µM to 33 µM; inactive = weaker than that. No potency is given beside an inconclusive call; the fits are too rough.

The compounds below were run against Lysosomal acid glucosylceramidase (Homo sapiens) (UniProt P04062) (assay: Glucocerebrosidase). Conditions: purified enzyme, resorufin glucoside fluorescence (screen aimed at inhibitors), 20 min.
Chain of UniProt P04062 (P04062 whole entry, looked up): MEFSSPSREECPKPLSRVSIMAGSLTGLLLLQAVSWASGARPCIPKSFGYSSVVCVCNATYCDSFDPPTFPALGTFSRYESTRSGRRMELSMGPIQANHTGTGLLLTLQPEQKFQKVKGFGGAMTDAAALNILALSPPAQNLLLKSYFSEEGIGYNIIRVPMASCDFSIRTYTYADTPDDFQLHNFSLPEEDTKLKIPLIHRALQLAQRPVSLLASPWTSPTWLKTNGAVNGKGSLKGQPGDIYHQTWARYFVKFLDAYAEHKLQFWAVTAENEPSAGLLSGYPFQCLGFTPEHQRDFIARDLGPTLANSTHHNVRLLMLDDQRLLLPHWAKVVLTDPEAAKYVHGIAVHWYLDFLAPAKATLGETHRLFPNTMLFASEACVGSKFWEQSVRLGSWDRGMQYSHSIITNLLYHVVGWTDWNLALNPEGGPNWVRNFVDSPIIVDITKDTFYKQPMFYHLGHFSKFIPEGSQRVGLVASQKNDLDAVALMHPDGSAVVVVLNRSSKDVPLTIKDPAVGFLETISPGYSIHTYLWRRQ
From the text: NCGC Assay Overview: Beta-glucocerebrosidase catalyzes the hydrolysis of beta-glucocerebroside to glucose and ceramide. The inherited deficiency of beta-glucocerebrosidase results in Gaucher disease, which is characterized by a wide variety of symptoms including hepatosplenomegaly, anemia, thrombocytopenia, bony lesions and bone marrow infiltration with characteristic storage cells, known as Gaucher cells. There are also forms of the disorder affecting the central nervous system. Patients with the same genotypes can manifest with diverse clinical presentations and it is believed that improper folding and trafficking of beta-glucocerbrosidase may contribute to the phenotypes observed. Low molecular weight molecules, acting as chaperones, may potentially restore trafficking of misfolded beta-glucocerebrosidase from the endoplasmic reticulum to the lysosomes, thereby enhancing functional lysosomal beta-glucocerebrosidase activity. Using normal beta-glucocerebrosidase, an assay was developed to screen for small molecule inhibitors that could potentially act as molecular chaperones on the mutant forms [developed with NIH investigator Dr. Ellen Sidransky's laboratory]. Two pro-fluorescent substrates were chosen for two screens against a small molecule library. One beta-glucocerebrosidase assay used Resorufin beta-D-Glucopyranoside (Marker Gene Technology Inc.), generating a red fluorescent product. The second assay used Fluorescein di-beta-D-Glucopyranoside, generating a blue fluorescent product. […] The IC50 values of Conduritol B Epoxide, a known glucocerebrosidase inhibitor, were determined to be 87.5 uM and 117 uM, respectively. The use of two difference pro-fluorescent substrates in the screens helped to eliminate false positives. All compounds were screened in a titration series resulting in AC50s (e.g., IC50s or EC50s).
NCGC Assay Protocol Summary: Both enzyme and substrate were diluted in buffer composed of 50mM citric acid/KH2PO4, 10mM sodium taurocholate and 0.01% tween-20 at pH 5.9. The final concentration of the enzyme was 0.2 nM in both assays. The compound library was titrated in 7 to 15 concentrations for the primary screens with a final concentration ranging from 0.6 nM to 50 uM. This particular assay protocol is for the "red" substrate, and it was performed in 1536-well plate format as follows: Red fluorescence substrate assay: 2 uL enzyme 23 nL compound 1 uL substrate (final concentration of 30 uM) Incubate at room temperature (RT) for 20 minutes Read the plate in Viewlux plate reader (Ex=548(7) and Em=600(10)).
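Note: the screen sought inhibitors.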
Potency is the fitted concentration of half-maximal effect.

| Structure (SMILES) | Potency |
| --- | --- |
| CN1CCN(CC(C)(C)NS(=O)(=O)c2ccc(Cl)cc2)CC1 | active: 14.2 µM |
| Fc1cccc2sc(Nc3nnc(-c4ccccc4)o3)nc12 | inactive: > 76.9 µM |
| O=C1NC2(CCOc3ccccc32)C(=O)N1CC(=O)N(Cc1ccccc1)C1CCS(=O)(=O)C1 (stereo not given) | inactive: > 76.9 µM |
| Cc1cc(Cl)ccc1OCC(=O)NCCCN1CCOCC1 | inconclusive [decreasing] |
| c1cc2c3c(cccc3c1)NC1(CCCCCC1)N2 | inconclusive [decreasing] |
| COc1ccc(C(C)C)cc1S(=O)(=O)N1CCN(C)CC1 | inconclusive [decreasing] |
| CC(=O)N1CCN(c2ccc(Oc3nc(-c4ccccc4)nc4ccccc34)cc2)CC1 | inactive: > 76.9 µM |
| O=C(Nc1ccncc1)C1c2ccccc2Oc2ccccc21 | inconclusive [decreasing] |
| c1ccc(-c2noc(-c3ccc4ccccc4c3)n2)cc1 | inactive |
| CC1CCN(C(=O)CSc2ccc3nnc(-c4ccccc4)n3n2)CC1 | inactive: > 76.9 µM |
| Cc1ccc(Cn2c(=N)c(C(=O)NCc3ccco3)cc3c(=O)n4ccccc4nc32)cc1 | inactive: > 76.9 µM |
| CCn1c(=O)n(CC(=O)Nc2cc(OC)ccc2OC)c(=O)c2ccccc21 | inconclusive [decreasing] |
| Cn1nnc(NC(=O)c2cccc(F)c2)n1 | inactive: > 76.9 µM |
| O=c1c2ccccc2nc2n1CCCCC2 | inactive: > 76.9 µM |
| COc1ccc(N(C2CSC2)S(=O)(=O)c2ccccc2)cc1 | inconclusive [decreasing] |
| CCn1c(=O)cc(OCC(=O)Nc2ccc3c(c2)OCCO3)c2ccccc21 | inconclusive [decreasing] |
| CCOC(=O)CNc1c(-c2ccc(O)cc2)nc2ccccn12 | inconclusive [decreasing] |
| N#Cc1c(SCC(N)=O)nc(-c2ccccc2)c2c1CCCC2 | inactive: > 76.9 µM |
| c1ccc(Cc2nnc3sc(-c4ccc5c(c4)OCO5)nn23)cc1 | inactive: > 76.9 µM |
| O=C(CNCCO)NC12CC3CC(CC(C3)C1)C2 | inconclusive [decreasing] |
| CSc1nnnn1CCn1nnnc1SC | inactive: > 76.9 µM |
| CC12COC3(C(=O)N4CCN(c5ccccn5)CC4)CC1CCC32C (stereo not given) | inconclusive [decreasing] |
| CC(=O)Nc1ccc(C(=O)CSc2nnc(-c3ccc(O)cc3)n2CC2CCCO2)cc1 (stereo not given) | inconclusive [decreasing] |
| CC1(C)NC(=O)N(CC(O)CN2CCOCC2)C1=O (stereo not given) | inactive: > 76.9 µM |
| COc1ccc(CN(CCCN2CCOCC2)C(=O)Nc2ccccc2)cc1OC | inconclusive [decreasing] |
| CCc1nnc(NC(=O)c2ccc(-c3cccc(C(F)(F)F)c3)o2)s1 | active: 1.84 µM |
| N#C/C(=C1/CCCCCN1)c1nc2ccccc2s1 | inconclusive [increasing] |

| Structure (SMILES) | Potency |
| --- | --- |
| CCc1c(C)nc2cc(-c3ccc(OC)cc3)[nH]n2c1=O | inconclusive [decreasing] |
| CC1CC(=O)C2=C(C1)Nc1ncnn1C2c1ccccc1 (stereo not given) | inactive: > 76.9 µM |
| CCc1nc(SCC(=O)NCc2ccco2)c2c3c(sc2n1)CCCC3 | inactive: > 76.9 µM |
| CCCn1nnnc1SCC(=O)c1ccc(NC(C)=O)cc1 | inactive: > 76.9 µM |
| CC(C)N1C(=O)CCC1C(=O)NCCc1ccccc1 (stereo not given) | inactive: > 76.9 µM |
| CC(=O)N(c1cccc(C)c1)C1SC(=O)N(c2ccccc2)C1=O (stereo not given) | inactive: > 76.9 µM |
| Cn1c(N)c(C(=O)COC(=O)Cn2cc(C(F)(F)F)ccc2=O)c(=O)n(C)c1=O | inactive: > 76.9 µM |
| COc1cccc2sc(Nc3nnc(-c4cccs4)o3)nc12 | inconclusive [increasing] |
| O=C1NCC(O)=C1C=NC12CC3CC(CC(C3)C1)C2 | inconclusive [decreasing] |
| O=C(O)CCc1ccc(-c2cccs2)n1NC(=O)c1ccc(O)cc1 | inconclusive [decreasing] |
| O=C(NC1=NCCS1)c1cc(-c2ccccc2)nn1-c1ccccc1 | inconclusive [decreasing] |
| CCOn1c(=O)c(-c2cc3ccccc3o2)[n+]([O-])c2ccccc21 | inconclusive [increasing] |
| Fc1ccc(C(c2nnnn2C2CCCC2)N2CCN(Cc3ccncc3)CC2)cc1 (stereo not given) | inactive: > 76.9 µM |
| COC(=O)c1ccccc1NC(=O)c1ccc(COc2ccccc2)o1 | inconclusive [increasing] |
| O=C(Nc1ccc2c(c1)OCO2)C1CCCN(c2nc3ccccc3s2)C1 (stereo not given) | inactive: > 76.9 µM |
| COc1ccccc1OCC(O)Cn1c(=N)n(Cc2ccccc2)c2ccccc21 (stereo not given) | inconclusive [decreasing] |
| O=C(OCC(=O)N1CCc2ccccc21)C1=COCCO1 | inactive: > 76.9 µM |
| Cc1ccccc1-n1nc(C)c2cc(C(=O)N3CCN(S(=O)(=O)c4ccc(F)cc4)CC3)sc21 | inactive: > 76.9 µM |
| NC(=O)C1CC(O)CN1c1nc(CN2CCOCC2)nc2scc(-c3ccccc3)c12 (stereo not given) | inconclusive [decreasing] |
| Cc1ccnc(NC(=O)CCC(=O)N(CC(=O)NC2CCCCC2)Cc2ccc3c(c2)OCO3)c1 | inconclusive [decreasing] |
| O=C(CN1C(=O)NC2(CCCCCC2)C1=O)c1ccc2c(c1)OCCO2 | inactive: > 76.9 µM |
| CC(CC(=O)Nc1ccncc1)c1ccccc1 (stereo not given) | inconclusive [decreasing] |
| CCCn1c(N)c(N(C)C)c(=O)n(CC(=O)Nc2ccc(OC(F)(F)F)cc2)c1=O | inconclusive [decreasing] |
| CCSc1nnc(NC(=O)C2Cc3ccccc3CN2C(=O)c2ccco2)s1 (stereo not given) | inconclusive [decreasing] |
| COc1ccc(CCN2C(=O)c3[nH]nc(-c4ccccc4O)c3C2c2ccccc2)cc1OC (stereo not given) | inconclusive [decreasing] |
| Cc1ccc(Cl)cc1N1CCN(S(=O)(=O)c2ccc3c(c2)OCCO3)CC1 | inconclusive [decreasing] |
| Cc1ccc(-n2c(SCC(=O)NCC3CCCO3)nc3n[nH]c(C)c3c2=N)cc1Cl (stereo not given) | active: 14.2 µM |

| Structure (SMILES) | Potency |
| --- | --- |
| CN1CCc2c(sc3c2c(=O)n(-c2ccccc2)c2nnc(SCc4ccc(F)cc4)n32)C1 | inconclusive [decreasing] |
| C=CCn1c(=S)[nH]c2ccc(Br)cc2c1=O | inconclusive [decreasing] |
| O=C(/C=N/O)NCc1cccnc1 | inactive: > 76.9 µM |
| COc1ccc2c(c1)c1c(n2C(C)=O)C(OC(C)=O)=NCC1 | inactive: > 76.9 µM |
| CCCCn1c(=NC(=O)c2ccco2)c(C(=O)OCC)cc2c(=O)n3ccccc3nc21 | inactive: > 76.9 µM |
| CCOc1cc(-c2nc3cc(C)ccn3c2NCC2CCCO2)ccc1O (stereo not given) | inconclusive [decreasing] |
| Cc1ccc2[nH]c(=O)c(CN(Cc3cccs3)Cc3nnnn3Cc3ccccc3)cc2c1 | inconclusive [decreasing] |
| CCN1CCN(c2ncnc3c2nnn3Cc2ccccc2)CC1 | inconclusive [decreasing] |
| CCOC(=O)N1CCC(NC(=O)CS(=O)(=O)Cc2nc(-c3cccc(OC)c3)oc2C)CC1 | inactive: > 76.9 µM |
| CCOc1ccc(CN(Cc2ccco2)C(c2cccs2)c2nnnn2C(C)(C)C)cc1 (stereo not given) | inconclusive [decreasing] |
| O=C(c1ccco1)N1C(=O)c2cccc3cccc1c23 | inconclusive [increasing] |
| O=c1c2ccccc2nc2c3ccccc3ncn12 | inactive: > 76.9 µM |
| COCCNC(=O)CSc1nc2ccccc2c(=O)n1CC1CCCO1 (stereo not given) | inactive: > 76.9 µM |
| Cc1cc(C(=O)CSc2nnc(-c3ccco3)o2)c(C)n1-c1ccc2c(c1)OCCO2 | inactive: > 76.9 µM |
| CCOc1ccccc1NC(=O)CSc1ncnc2c1oc1ccccc12 | inconclusive [increasing] |
| CCOC(=O)c1c(NC(=O)c2cccs2)sc2c1CC(C)(C)OC2 | inconclusive [increasing] |
| N#CC1=C(N)N(c2ccccc2)C(c2ccco2)C1(C#N)C#N (stereo not given) | inconclusive [decreasing] |
| Cc1ccc(C(=O)CSC2=C(C#N)C(c3ccco3)C3=C(CC(C)(C)CC3=O)N2)cc1 (stereo not given) | inconclusive [decreasing] |
| Cc1noc(C)c1C(=O)Nc1sc(C)c(C)c1C#N | inactive: > 76.9 µM |
| COCCNC(=O)C(c1ccco1)N(C(=O)Cn1nnc2ccccc21)c1ccccc1C (stereo not given) | inactive: > 76.9 µM |
| O=C(Nc1ccc2c(c1)OCO2)C1CCN(S(=O)(=O)c2cccs2)CC1 | inconclusive [decreasing] |
| Nc1nc(-c2ccccc2)nc(-c2ccccc2O)n1 | inconclusive [increasing] |
| COc1ccccc1N1CCN(Cc2nc(N)nc(Nc3ccccc3)n2)CC1 | active: 4.8 µM |
| Cc1oc2cc(OC(C)C(=O)O)ccc2c(=O)c1Oc1ccccc1 (stereo not given) | inactive: > 76.9 µM |
| O=C(CSc1ccc(Cl)cc1)Nc1ccc(N2CCN(C(=O)c3ccco3)CC2)cc1 | inconclusive [decreasing] |
| Cc1ccc(C(c2nnnn2CCC(C)C)N2CCN(C)CC2)cc1 (stereo not given) | inconclusive [decreasing] |
